According to US20220233553A1, “CELLULAR SENESCENCE ACTIVATING COMPOUNDS” (UNIVERSIDAD NACIONAL AUTONOMA DE MEXICO, priority 2019, published 2022):

Tested on: HCT-116 cell xenotransplantation
Test: Cell morphology in tumor tissues (hematoxylin-eosin, DAPI)
Conditions: tumor tissues of treated mice vs control group

CC1(C)C(=O)CC[C@]23C[C@]24CC[C@]2(C)C([C@]5(C)CC[C@H](C(C)(C)O)O5)[C@@H](O)C[C@@]2(C)C4CCC13 (stereo partly shown) [In, Argentantine A]
cell morphology in tumor tissues stained with hematoxylin-eosin: slightly elongated nuclei and greater space between them
